In the supplement of paper PMC10126150:
Values marked as one replicate rest on one cluster of the flow cell; about a third of the high ones do not repeat.

Tested on: ATP
Assay: switch fluorescence ratio, 500 uM ATP over buffer (Cy3 cluster intensity, sum of 5 cycles each) (fold (ratio)); higher = stronger signal-on switching upon ATP binding; sequences stand for … in TCGTCGGCAGCGTCAGATGTGTATAAGAGACAGTTTTTTTTTTTTTTTTTTTTTTTTT…TC
Details: aptamer strand: ATP DNA aptamer (quencher-CACCTGGGGGAGTATTGCGGAGGAAGG + anchor), 100 nM annealed; ATP concentration: 500 uM; one replicate
Method in brief: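 The quencher-labelled ATP aptamer, at 100 nM, was annealed to Cy3-labelled switching-strand clusters on a modified Illumina MiSeq flow-cell. The clusters were imaged in selection buffer, then after 15 min with 500 uM ATP at 22 °C, and this buffer/ATP cycle ran five times with NaOH stripping and re-annealing between runs. Per-cluster fluorescence ratios, summed target-cycle over summed buffer-cycle Cy3 intensity, were averaged per switch-domain sequence. Clusters outside 100-1000 RFU were excluded.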
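Further: ATP exposure 15 min at 22 °C before imaging.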

Sequence	switch fluorescence ratio
ACCCCCCAGT	1.19
GGGTCCGGAA	1.04
TGAAAGGGTT	0.962
GTATTGAGGG	0.989
ATGGTGATGG	1.02
GTGGTTACTT	1.04
ATGCAACCCT	1.01
TGCCTAGTGT	0.99
TTAGGCATGG	1.01
ATTCGTTTGG	0.943
GATAGAGTGT	1
AACAGCCGGT	1.03
GCGCGCTCTG	0.986
TTAATCAGAA	0.96
GGAGATGTAG	1.01
AGTTATTCGT	1.03
CATATTGGTT	0.968
GGTGGCAGAC	1.07
ACTTGAGTTA	1.02
GATGCAAGCT	1.15
AAGTTACGCC	1.04
CGTCTGGATG	0.986
GTCGATTTGG	1
ACGGGAAACA	1.02
TAGTAGAGGG	0.958

Sequence	switch fluorescence ratio
TACATTGTTC	1.05
GGACTTCTGA	0.989
TTAGCATACA	1.78
GTTCAGCCAG	1.16
GCGTGACGGT	0.977
CCCAGAGGTA	1.03
AGAATTTTTC	0.963
CGGTAGAGTG	0.978
GTAAACCAGT	0.983
AAATTGTTGG	1.02
TTCGGCGGAA	1.03
GGGATTCCGG	0.985
GAAGGGGCGG	0.975
AGGGGCCATG	0.987
AATGTATCGG	0.979
AACTAAACGG	1.16
ATCAGCTGCT	0.96
GCTGATTTTA	1.01
TTAGAGCGGA	1.03
GACTAGTTG	1.01
CCGTGATCCC	2.69
ATCCAAAGCT	1.2
TTGGTCGATG	0.961
TCGAGGTGTA	0.998
TCCGGCCCAA	5.24

Sequence	switch fluorescence ratio
CGGCAAACT	2.5
AGGAAATGCA	0.986
CTTCAAAACT	1.02
ACCTGCTAG	0.986
AGCCAACGGA	0.979
TATTAAATAG	0.994
CGCAGCCGTT	1.03
GTGCGAAACT	1.11
GGTTTGACGA	1
TCTTAGTGGT	0.98
TCAGATGCCT	0.963
CAATCGCTTA	1.24
GGCTTTGTCT	0.958
TCTCAGCACA	1.41
ATACGATGG	0.916
CATTCATTCG	1.08
AAGAAAAACA	0.987
AAGAGTCAAA	0.962
CTGGGCAGTG	1.04
CCTAAGTTAG	1
GATGTATTAC	1.15
AGGAAAGACG	1.07
TTAAAAACGC	1.03
AATGTATGTC	0.965
TTTCATCGCT	1.1

Sequence	switch fluorescence ratio
ACAGGATCTT	0.977
TGACGTCCAT	1.11
TCGCACCCTT	1.15
ACGGATTCAC	1.17
CCGATCTACG	1.5
AGGCGGTTT	1.01
TAGCGGTTCA	1
TTCGAGGCGA	1.68
GAGCATCCAG	1.03
TATTAGCACT	1.01
ACAGGAATGT	0.939
AGTGTGTCGT	1.03
TTCAGTTACT	1.03
AAGTTTCACA	1.06
GGGACAGCAA	1.87
CAAGGAGGAG	1
GGCTGAAATT	0.992
TAGTATCATT	0.945
ACATCGATTT	1
TGATTTGCAG	1.03
CGCCGCGGCC	1.11
AAGGGCTCGT	1.01
CATCTCAAGT	0.984
CATACTCTTA	0.981
GTGCCCGGGC	1.03
